Experimental data as given in the RNAGym collection of RNA variant scans (doi:10.1093/nar/gkz1192).
The source gives no read counts; variants with many changes may rest on few reads.

B1: CPEB3 Ribozyme (parent)
chain: UAACAGGGGGCCACAGCAGAAGCGUUCACGUCGCAGCCCCUGUCAGAUUCUGGUGAAUCUGCGAAUUCUGCUGUAUAUCUC

Variants of: B1
Assay: self-cleavage, relative activity (ratio to wild type); higher = more cleavage; in vitro, sequencing
Outline: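 Libraries of CPEB3 self-cleaving ribozyme mutants came from rounds of error-prone PCR and carried barcodes, which DNA sequencing matched to variants. In vitro transcription used T7 RNA polymerase at 37°C for 5 hours, with a further 15 min in DNase I before EDTA stopped the reaction; the ribozymes cleaved during both steps. The RNA was reverse transcribed with template switching and sequenced on Illumina. Relative activity is the cleaved/total read fraction of a variant divided by that of the unmutated ribozyme, averaged over three batches with at least 5 reads.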
UAACAGGGGGCCACAGCAGAAGCGUUCGCGUCGCAGCCCCUGACAGAUUCUGGUGAUUCUGCGAAUUCUGCUGUAUAUCUC [A28G U43A A57U] gave a self-cleavage of 0.44.
UAACAGGGGGCCACAGCAGAAGCGUUCGCGUCGCAGCCCCUGACAGAUUCUGGUGAAUCUGCGAAUUCUGCUGUUUAUCCC [A28G U43A A75U U80C] showed a self-cleavage of 0.7.
Variant UAACAGGGGGCCACAGCAGAAGCGUUCGCGUCGCAGCCCCUGACAGAUUCUGGUGAAUCUGGGAAUCCUGCUGUAUAUCUC [A28G U43A C62G U67C] has a self-cleavage of 0.09.
UAACAGGGGGCCACAGCAGAAGCGUUCGCGUCGCAGCCCCUGACAGACUCUGGUGAAUCUGCGAAUUCUGCUGUAUACCUC [A28G U43A U48C U78C] gave a self-cleavage of 0.27.
Work on UAACAGGGGGCCACAGCAGAAGCGUUCGCGUCGCAGCCCCUGACAGAUCCUGGUGAAUCUGCGAAUUCUGCUGUAUAUCUC [A28G U43A U49C] yielded a self-cleavage of 0.21.
UAACAGGGGGCCACAGCAGAAGCGUUCGCGUCGCAGCCCCUGACAGAUUCUGGUGAAUCUGCGAACUCUGCUGUAUAUCUC [A28G U43A U66C] showed a self-cleavage of 0.63.
For UAACAGGGGGCCACAGCAGAAGCGUUCGCGUCGCAGCCCCUGCCGGAUUCCGGCGAAUCUGCGAAUUCUGCUGUAUAUCUC [A28G U43C A45G U51C U54C], the self-cleavage was 0.08.
Work on UAACAGGGGGCCACAGCAGAAGCGUUCGCGUCGCAGCCCCUGCCUGAUUCUGGUGAAUCUGCGAAUUCUGCUGUAUACCUC [A28G U43C A45U U78C] yielded a self-cleavage of 0.05.
Variant UAACAGGGGGCCACAGCAGAAGCGUUCGCGUCGCAGCCCCUGCCAGUUUCUGCUGAAUCUGCGAAUUCUGCUGUAUAUCUC [A28G U43C A47U G53C] has a self-cleavage of 0.09.
UAACAGGGGGCCACAGCAGAAGCGUUCGCGUCGCAGCCCCUGCCAGAUUCUGGUGGAUCUGCGAAUUCUGCUGUAUAUCUU [A28G U43C A56G C81U] showed a self-cleavage of 0.21.
In the case of UAACAGGGGGCCACAGCAGAAGCGUUCGCGUCGCAGCCCCUGCCAGAUUCUGGUGUAUCUGCGAAUUCUGCUGUAUAUCUC [A28G U43C A56U], the self-cleavage is reported as 0.11.
UAACAGGGGGCCACAGCAGAAGCGUUCGCGUCGCAGCCCCUGCCAGAUUCUGGUGAGUCUGCGAAUUCUGCUGUAUAUCUC [A28G U43C A57G] gave a self-cleavage of 0.22.
Variant UAACAGGGGGCCACAGCAGAAGCGUUCGCGUCGCAGCCCCUGCCAGAUUCUGGUGAAUCUGCGAAUUCUGCUGUGUAUUUC [A28G U43C A75G C79U] has a self-cleavage of 0.13.
UAACAGGGGGCCACAGCAGAAGCGUUCGCGUCGCAGCCCCUGCUAGAUUCUGGUGAAUCUGCGAAUUCAGCUGUAUAUCCC [A28G U43C C44U U69A U80C] gave a self-cleavage of 0.24.
With UAACAGGGGGCCACAGCAGAAGCGUUCGCGUCGCAGCCCCUGCCAGAUUCUGCUGAAUCUGCGAAUUCUGCUGUAUAUCCC [A28G U43C G53C U80C] the self-cleavage was 0.38.
With UAACAGGGGGCCACAGCAGAAGCGUUCGCGUCGCAGCCCCUGCCAGAUUCUGGUGAAUCUGCCAAUUCUGCUGUAUAUCUC [A28G U43C G63C] the self-cleavage was 0.18.
For UAACAGGGGGCCACAGCAGAAGCGUUCGCGUCGCAGCCCCUGCCAGACUCUGGUGAAUCUGCGAAUUCUGCUGUAUAUCUC [A28G U43C U48C], the self-cleavage was 0.79.
For UAACAGGGGGCCACAGCAGAAGCGUUCGCGUCGCAGCCCCUGCCAGAUACUGGUGAAUCUGCGAAUUCUGCCGUAUAUCUC [A28G U43C U49A U72C], the self-cleavage was 0.1.
With UAACAGGGGGCCACAGCAGAAGCGUUCGCGUCGCAGCCCCUGCCAGAUUCUGGCGAAUCAGCGAAUUCUGCUGUAUAUCUC [A28G U43C U54C U60A] the self-cleavage was 0.16.
With UAACAGGGGGCCACAGCAGAAGCGUUCGCGUCGCAGCCCCUGCCAGAUUCUGGUGAACCCGCGAAUUCUGCUGUAUAUCUC [A28G U43C U58C U60C] the self-cleavage was 0.22.
In the case of UAACAGGGGGCCACAGCAGAAGCGUUCGCGUCGCAGCCCCUGCCAGAUUCUGGUGAAUCCGCGAAUUCUGCUGUAUAUCUC [A28G U43C U60C], the self-cleavage is reported as 0.36.
UAACAGGGGGCCACAGCAGAAGCGUUCGCGUCGCAGCCCCUGCCAGAUUCUGGUGAAUCUGCGAAUUCCGCUGUAUAUCUC [A28G U43C U69C] showed a self-cleavage of 0.21.
UAACAGGGGGCCACAGCAGAAGCGUUCGCGUCGCAGCCCCUGCCAGAUUCUGGUGAAUCUGCGAAUUCUGCCGUAUAUCUC [A28G U43C U72C] gave a self-cleavage of 0.4.
Variant UAACAGGGGGCCACAGCAGAAGCGUUCGCGUCGCAGCCCCUGCCAGAUUCUGGUGAAUCUGCGAAUUCUGCGCUAUAUCUC [A28G U43C U72G G73C] has a self-cleavage of 0.59.
With UAACAGGGGGCCACAGCAGAAGCGUUCGCGUCGCAGCCCCUGCCAGAUUCUGGUGAAUCUGCGAAUUCUGCUGUAUAUCCC [A28G U43C U80C] the self-cleavage was 0.2.
Work on UAACAGGGGGCCACAGCAGAAGCGUUCGCGUCGCAGCCCCUGCCAGAUUCUGGUGAAUCUGCGAAUUCUGCUGUAUAUCGC [A28G U43C U80G] yielded a self-cleavage of 0.31.
Variant UAACAGGGGGCCACAGCAGAAGCGUUCGCGUCGCAGCCCCUGGCAGACUCUGGUGAAUCUGCGAAUUCUGCUGUAUAUCUC [A28G U43G U48C] has a self-cleavage of 0.09.
Work on UAACAGGGGGCCACAGCAGAAGCGUUCGCGUCGCAGCCCCUGGCAGAUUCUGGCGAAUCUGUGAAUUCUGCUGUAUAUCUC [A28G U43G U54C C62U] yielded a self-cleavage of 0.14.
With UAACAGGGGGCCACAGCAGAAGCGUUCGCGUCGCAGCCCCUGUCAGAAUCAGGUGAAUCUGCGAAUUCUGCUGUAUAUCUC [A28G U48A U51A] the self-cleavage was 0.14.
In the case of UAACAGGGGGCCACAGCAGAAGCGUUCGCGUCGCAGCCCCUGUCAGACUCUGGUGUAUCUGCGAAUUCUGCUGUAUACCUC [A28G U48C A56U U78C], the self-cleavage is reported as 0.16.
For UAACAGGGGGCCACAGCAGAAGCGUUCGCGUCGCAGCCCCUGUCAGACUCUGGUGAGUCUGCGAAUUCUGCUGUAUAUCUC [A28G U48C A57G], the self-cleavage was 0.73.
With UAACAGGGGGCCACAGCAGAAGCGUUCGCGUCGCAGCCCCUGUCAGACUCUGGUGAAUCUGCGAAUUCUGCUGUGUAUCUC [A28G U48C A75G] the self-cleavage was 0.4.
In the case of UAACAGGGGGCCACAGCAGAAGCGUUCGCGUCGCAGCCCCUGUCAGACUCUGGUGAAUCUGCGAAUUCUGCUGUUUAUCUC [A28G U48C A75U], the self-cleavage is reported as 0.22.
With UAACAGGGGGCCACAGCAGAAGCGUUCGCGUCGCAGCCCCUGUCAGACUCUGGUGAAUCUGCGAAUUCUGCUGUAUUUCUC [A28G U48C A77U] the self-cleavage was 0.5.
